# Test results as given in article PMC12820563.
# The list shows a part of the results. The list includes weakly bound sequences.
# Molecular target: T1, MBP-FoxP3dN (UniProt Q99JB6)
# T1 sequence: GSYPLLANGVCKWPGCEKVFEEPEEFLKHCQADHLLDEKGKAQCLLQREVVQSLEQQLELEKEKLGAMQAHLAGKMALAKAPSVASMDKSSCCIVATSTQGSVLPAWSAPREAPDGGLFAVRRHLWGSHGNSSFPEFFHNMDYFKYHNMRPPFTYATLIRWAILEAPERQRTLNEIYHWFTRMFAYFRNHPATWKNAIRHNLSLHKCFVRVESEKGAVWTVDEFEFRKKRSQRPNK
# Experiment: PD-seq (MBP pull-down with sequencing)
# Conditions: 20 mM Tris-HCl pH 7.5, 100 mM NaCl, 1.5 mM MgCl2, 0.4 uM protein, 0.1 uM dsDNA library, 30 min, room temperature, amylose pull-down; high values mean tight binding; double strand, one strand shown
row,Sequence,binding signal (RPM ratio (pull-down/input))
1,GATGATTGTTCTCCCAGCTGATGAATTAACCTGATCGAGTAAACAAATTTTCCTAATCTTTCTGTTCAAGCGCCATCTAC,0.199
2,GATGATTGTTCTCCCAGCTGATGAATTAGGAGAATCGAGTAAACAAATTTTCCTAATCTTTCTGTTCAAGCGCCATCTAC,0.195
3,GATGATTGTTCTCCCAGCTGATGAATTCAACGACTCGAGTAAACAAATTTTCCTAATCTTTCTGTTCAAGCGCCATCTAC,0.407
4,GATGATTGTTCTCCCAGCTGATGAATTTTCTGAATCGAGTAAACAAATTTTCCTAATCTTTCTGTTCAAGCGCCATCTAC,0.193
5,GATGATTGTTCTCCCAGCTGATGAATTCATCGGCTCGAGTAAACAAATTTTCCTAATCTTTCTGTTCAAGCGCCATCTAC,0.265
6,GATGATTGTTCTCCCAGCTGATGAATTTGTCTCCTCGAGTAAACAAATTTTCCTAATCTTTCTGTTCAAGCGCCATCTAC,2.93
7,GATGATTGTTCTCCCAGCTGATGAATTCGTCAAGTCGAGTAAACAAATTTTCCTAATCTTTCTGTTCAAGCGCCATCTAC,0.32
8,GATGATTGTTCTCCCAGCTGATGAATTGGTGCGTTCGAGTAAACAAATTTTCCTAATCTTTCTGTTCAAGCGCCATCTAC,1.84
9,GATGATTGTTCTCCCAGCTGATGAATTGGGGCTATCGAGTAAACAAATTTTCCTAATCTTTCTGTTCAAGCGCCATCTAC,0.601
10,GATGATTGTTCTCCCAGCTGATGAATTAATATACTCGAGTAAACAAATTTTCCTAATCTTTCTGTTCAAGCGCCATCTAC,1.38
11,GATGATTGTTCTCCCAGCTGATGAATTCCAGTGCTCGAGTAAACAAATTTTCCTAATCTTTCTGTTCAAGCGCCATCTAC,0.41
12,GATGATTGTTCTCCCAGCTGATGAATTAAAGCTATCGAGTAAACAAATTTTCCTAATCTTTCTGTTCAAGCGCCATCTAC,0.683
13,GATGATTGTTCTCCCAGCTGATGAATTGCAGCACTCGAGTAAACAAATTTTCCTAATCTTTCTGTTCAAGCGCCATCTAC,0.947
14,GATGATTGTTCTCCCAGCTGATGAATTTTCCTGTTCGAGTAAACAAATTTTCCTAATCTTTCTGTTCAAGCGCCATCTAC,0.246
15,GATGATTGTTCTCCCAGCTGATGAATTTTACCATTCGAGTAAACAAATTTTCCTAATCTTTCTGTTCAAGCGCCATCTAC,0.391
16,GATGATTGTTCTCCCAGCTGATGAATTATTTCGCTCGAGTAAACAAATTTTCCTAATCTTTCTGTTCAAGCGCCATCTAC,0.356
17,GATGATTGTTCTCCCAGCTGATGAATTTTTAGGCTCGAGTAAACAAATTTTCCTAATCTTTCTGTTCAAGCGCCATCTAC,0.257
18,GATGATTGTTCTCCCAGCTGATGAATTCGCCAAATCGAGTAAACAAATTTTCCTAATCTTTCTGTTCAAGCGCCATCTAC,0.213
19,GATGATTGTTCTCCCAGCTGATGAATTGAAGAGGTCGAGTAAACAAATTTTCCTAATCTTTCTGTTCAAGCGCCATCTAC,0.188
20,GATGATTGTTCTCCCAGCTGATGAATTACCGAGATCGAGTAAACAAATTTTCCTAATCTTTCTGTTCAAGCGCCATCTAC,0.258
21,GATGATTGTTCTCCCAGCTGATGAATTTTCTTCATCGAGTAAACAAATTTTCCTAATCTTTCTGTTCAAGCGCCATCTAC,0.275

row,Sequence,binding signal (RPM ratio (pull-down/input))
1,GATGATTGTTCTCCCAGCTGATGAATTCGCCATTTCGAGTAAACAAATTTTCCTAATCTTTCTGTTCAAGCGCCATCTAC,1.75
2,GATGATTGTTCTCCCAGCTGATGAATTACGGATTTCGAGTAAACAAATTTTCCTAATCTTTCTGTTCAAGCGCCATCTAC,0.374
3,GATGATTGTTCTCCCAGCTGATGAATTAAGCGCCTCGAGTAAACAAATTTTCCTAATCTTTCTGTTCAAGCGCCATCTAC,1.4
4,GATGATTGTTCTCCCAGCTGATGAATTAGCGAGTTCGAGTAAACAAATTTTCCTAATCTTTCTGTTCAAGCGCCATCTAC,0.547
5,GATGATTGTTCTCCCAGCTGATGAATTCCACCGTTCGAGTAAACAAATTTTCCTAATCTTTCTGTTCAAGCGCCATCTAC,0.359
6,GATGATTGTTCTCCCAGCTGATGAATTAGTTTACTCGAGTAAACAAATTTTCCTAATCTTTCTGTTCAAGCGCCATCTAC,5.83
7,GATGATTGTTCTCCCAGCTGATGAATTAAATCGCTCGAGTAAACAAATTTTCCTAATCTTTCTGTTCAAGCGCCATCTAC,0.294
8,GATGATTGTTCTCCCAGCTGATGAATTGGGGGCTTCGAGTAAACAAATTTTCCTAATCTTTCTGTTCAAGCGCCATCTAC,0.475
9,GATGATTGTTCTCCCAGCTGATGAATTTATATTGTCGAGTAAACAAATTTTCCTAATCTTTCTGTTCAAGCGCCATCTAC,2.37
10,GATGATTGTTCTCCCAGCTGATGAATTACTTCGCTCGAGTAAACAAATTTTCCTAATCTTTCTGTTCAAGCGCCATCTAC,0.286
11,GATGATTGTTCTCCCAGCTGATGAATTACTGAGTTCGAGTAAACAAATTTTCCTAATCTTTCTGTTCAAGCGCCATCTAC,0.515
12,GATGATTGTTCTCCCAGCTGATGAATTTGTAATGTCGAGTAAACAAATTTTCCTAATCTTTCTGTTCAAGCGCCATCTAC,3.87
13,GATGATTGTTCTCCCAGCTGATGAATTTCGCTATTCGAGTAAACAAATTTTCCTAATCTTTCTGTTCAAGCGCCATCTAC,2.44
14,GATGATTGTTCTCCCAGCTGATGAATTGCATTGATCGAGTAAACAAATTTTCCTAATCTTTCTGTTCAAGCGCCATCTAC,2.27
15,GATGATTGTTCTCCCAGCTGATGAATTAGACATTTCGAGTAAACAAATTTTCCTAATCTTTCTGTTCAAGCGCCATCTAC,0.714
16,GATGATTGTTCTCCCAGCTGATGAATTAAGGCGATCGAGTAAACAAATTTTCCTAATCTTTCTGTTCAAGCGCCATCTAC,0.729
17,GATGATTGTTCTCCCAGCTGATGAATTCCGACTCTCGAGTAAACAAATTTTCCTAATCTTTCTGTTCAAGCGCCATCTAC,2.16
18,GATGATTGTTCTCCCAGCTGATGAATTCAGGCGTTCGAGTAAACAAATTTTCCTAATCTTTCTGTTCAAGCGCCATCTAC,1.09
19,GATGATTGTTCTCCCAGCTGATGAATTGAGGGCATCGAGTAAACAAATTTTCCTAATCTTTCTGTTCAAGCGCCATCTAC,0.782
20,GATGATTGTTCTCCCAGCTGATGAATTAAGAGGTTCGAGTAAACAAATTTTCCTAATCTTTCTGTTCAAGCGCCATCTAC,0.358
21,GATGATTGTTCTCCCAGCTGATGAATTGTATTAGTCGAGTAAACAAATTTTCCTAATCTTTCTGTTCAAGCGCCATCTAC,3.73

row,Sequence,binding signal (RPM ratio (pull-down/input))
1,GATGATTGTTCTCCCAGCTGATGAATTTATGCCATCGAGTAAACAAATTTTCCTAATCTTTCTGTTCAAGCGCCATCTAC,3.33
2,GATGATTGTTCTCCCAGCTGATGAATTAATGCGCTCGAGTAAACAAATTTTCCTAATCTTTCTGTTCAAGCGCCATCTAC,2.16
3,GATGATTGTTCTCCCAGCTGATGAATTCCCCTCGTCGAGTAAACAAATTTTCCTAATCTTTCTGTTCAAGCGCCATCTAC,0.241
4,GATGATTGTTCTCCCAGCTGATGAATTGTTACGATCGAGTAAACAAATTTTCCTAATCTTTCTGTTCAAGCGCCATCTAC,0.792
5,GATGATTGTTCTCCCAGCTGATGAATTGTGCCGATCGAGTAAACAAATTTTCCTAATCTTTCTGTTCAAGCGCCATCTAC,1.02
6,GATGATTGTTCTCCCAGCTGATGAATTGCTCCCTTCGAGTAAACAAATTTTCCTAATCTTTCTGTTCAAGCGCCATCTAC,0.468
7,GATGATTGTTCTCCCAGCTGATGAATTAGCCTCGTCGAGTAAACAAATTTTCCTAATCTTTCTGTTCAAGCGCCATCTAC,0.702
8,GATGATTGTTCTCCCAGCTGATGAATTATTGTTTTCGAGTAAACAAATTTTCCTAATCTTTCTGTTCAAGCGCCATCTAC,3.7
9,GATGATTGTTCTCCCAGCTGATGAATTTAAAACGTCGAGTAAACAAATTTTCCTAATCTTTCTGTTCAAGCGCCATCTAC,0.239
10,GATGATTGTTCTCCCAGCTGATGAATTTTGTCCCTCGAGTAAACAAATTTTCCTAATCTTTCTGTTCAAGCGCCATCTAC,2.21
11,GATGATTGTTCTCCCAGCTGATGAATTGATGGAATCGAGTAAACAAATTTTCCTAATCTTTCTGTTCAAGCGCCATCTAC,0.283
12,GATGATTGTTCTCCCAGCTGATGAATTATCGTGTTCGAGTAAACAAATTTTCCTAATCTTTCTGTTCAAGCGCCATCTAC,0.652
13,GATGATTGTTCTCCCAGCTGATGAATTGTATTACTCGAGTAAACAAATTTTCCTAATCTTTCTGTTCAAGCGCCATCTAC,1.8
14,GATGATTGTTCTCCCAGCTGATGAATTTCAGACTTCGAGTAAACAAATTTTCCTAATCTTTCTGTTCAAGCGCCATCTAC,0.327
15,GATGATTGTTCTCCCAGCTGATGAATTCGGGAGGTCGAGTAAACAAATTTTCCTAATCTTTCTGTTCAAGCGCCATCTAC,0.209
16,GATGATTGTTCTCCCAGCTGATGAATTCCCGCACTCGAGTAAACAAATTTTCCTAATCTTTCTGTTCAAGCGCCATCTAC,0.458
17,GATGATTGTTCTCCCAGCTGATGAATTGCAAAACTCGAGTAAACAAATTTTCCTAATCTTTCTGTTCAAGCGCCATCTAC,0.671
18,GATGATTGTTCTCCCAGCTGATGAATTCGCAAGCTCGAGTAAACAAATTTTCCTAATCTTTCTGTTCAAGCGCCATCTAC,0.44
19,GATGATTGTTCTCCCAGCTGATGAATTAGCCTAATCGAGTAAACAAATTTTCCTAATCTTTCTGTTCAAGCGCCATCTAC,0.387
20,GATGATTGTTCTCCCAGCTGATGAATTGGTCAGTTCGAGTAAACAAATTTTCCTAATCTTTCTGTTCAAGCGCCATCTAC,0.364
21,GATGATTGTTCTCCCAGCTGATGAATTCTGCATGTCGAGTAAACAAATTTTCCTAATCTTTCTGTTCAAGCGCCATCTAC,5.95
